B1: Z17746-ABD (designed binder)
chain: AQHDEALEVDAKYAKERNEAAYEILYLPNLTNAQKWAFIWKLDDDPSQSSELLSEAKKLNDSQAPKVDYVLAEAKVLANRELDKYGVSDYYKNLINNAKTVEGVKALIDEILAALPYVPG
notes: domain: GA3
B2: Z18052-ABD (designed binder)
chain: AQHDEALEVDAKYAKERNIAAYEILYLPNLTQSQIWAFIWKLDDDPSQSSELLSEAKKLNDSQAPKVDYVLAEAKVLANRELDKYGVSDYYKNLINNAKTVEGVKALIDEILAALPYVPG
notes: domain: GA3
B3: Z17928-ABD (designed binder)
chain: AQHDEALEVDAKYAKERNAAAYEILYLPNLTQKQRWAFIWKLDDDPSQSSELLSEAKKLNDSQAPKVDYVLAEAKVLANRELDKYGVSDYYKNLINNAKTVEGVKALIDEILAALPYVPG
notes: domain: GA3
B4: Z18037-ABD (designed binder)
chain: AQHDEALEVDAKYAKERNEAAYEILYLPNLTNEQKWAFIWKLDDDPSQSSELLSEAKKLNDSQAPKVDYVLAEAKVLANRELDKYGVSDYYKNLINNAKTVEGVKALIDEILAALPYVPG
notes: domain: GA3
B5: Z18005-ABD (designed binder)
chain: AQHDEALEVDAKYAKERNEAAYEILYLPNLTQVQKWAFIWKLDDDPSQSSELLSEAKKLNDSQAPKVDYVLAEAKVLANRELDKYGVSDYYKNLINNAKTVEGVKALIDEILAALPYVPG
notes: domain: GA3
B6: Z17911-ABD (designed binder)
chain: AQHDEALEVDAKYAKERNNAAYEILYLPNLTNAQKWAFIWKLDDDPSQSSELLSEAKKLNDSQAPKVDYVLAEAKVLANRELDKYGVSDYYKNLINNAKTVEGVKALIDEILAALPYVPG
notes: domain: GA3
B7: Z18048-ABD (designed binder)
chain: AQHDEALEVDAKYAKERNSAAYEILYLPNLTNAQKWAFIWKLDDDPSQSSELLSEAKKLNDSQAPKVDYVLAEAKVLANRELDKYGVSDYYKNLINNAKTVEGVKALIDEILAALPYVPG
notes: domain: GA3
B8: Z17950-ABD (designed binder)
chain: AQHDEALEVDAKYAKERNAAAQEILYLPNLTSQQRWAFIWKLDDDPSQSSELLSEAKKLNDSQAPKVDYVLAEAKVLANRELDKYGVSDYYKNLINNAKTVEGVKALIDEILAALPYVPG
notes: domain: GA3
B9: Z18008-ABD (designed binder)
chain: AQHDEALEVDAKYAKERNTAAYEILYLPNLTQSQRWAFIWKLDDDPSQSSELLSEAKKLNDSQAPKVDYVLAEAKVLANRELDKYGVSDYYKNLINNAKTVEGVKALIDEILAALPYVPG
notes: domain: GA3
B10: Z17999-ABD (designed binder)
chain: AQHDEALEVDAKYAKERNDAAYEILYLPNLTQEQRWAFIWKLDDDPSQSSELLSEAKKLNDSQAPKVDYVLAEAKVLANRELDKYGVSDYYKNLINNAKTVEGVKALIDEILAALPYVPG
notes: domain: GA3
B11: Z17997-ABD (designed binder)
chain: AQHDEALEVDAKYAKERNLAAYEILYLPNLTQKQRWAFIWKLDDDPSQSSELLSEAKKLNDSQAPKVDYVLAEAKVLANRELDKYGVSDYYKNLINNAKTVEGVKALIDEILAALPYVPG
notes: domain: GA3
B12: Z18054-ABD (designed binder)
chain: AQHDEALEVDAKYAKERNDAAFEILYLPNLTQAQIWAFIWKLDDDPSQSSELLSEAKKLNDSQAPKVDYVLAEAKVLANRELDKYGVSDYYKNLINNAKTVEGVKALIDEILAALPYVPG
notes: domain: GA3
B13: Z18036-ABD (designed binder)
chain: AQHDEALEVDAKYAKERNQAAYEILYLPNLTNKQKWAFIWKLDDDPSQSSELLSEAKKLNDSQAPKVDYVLAEAKVLANRELDKYGVSDYYKNLINNAKTVEGVKALIDEILAALPYVPG
notes: domain: GA3
B14: Z17825-ABD (designed binder)
chain: AQHDEALEVDAKYAKERNLAAYEILYLPNLTNAQKWAFIWKLDDDPSQSSELLSEAKKLNDSQAPKVDYVLAEAKVLANRELDKYGVSDYYKNLINNAKTVEGVKALIDEILAALPYVPG
notes: domain: GA3
B15: Z18000-ABD (designed binder)
chain: AQHDEALEVDAKYAKERNVAAYEILYLPNLTNQQKWAFIWKLDDDPSQSSELLSEAKKLNDSQAPKVDYVLAEAKVLANRELDKYGVSDYYKNLINNAKTVEGVKALIDEILAALPYVPG
notes: domain: GA3
B16: Z18039-ABD (designed binder)
chain: AQHDEALEVDAKYAKERNEAAYEILYLPNLTQSQIWAFIWKLDDDPSQSSELLSEAKKLNDSQAPKVDYVLAEAKVLANRELDKYGVSDYYKNLINNAKTVEGVKALIDEILAALPYVPG
notes: domain: GA3
B17: Z17758-ABD (designed binder)
chain: AQHDEALEVDAKYAKERNKAAYEILYLPNLTNKQKWAFIWKLDDDPSQSSELLSEAKKLNDSQAPKVDYVLAEAKVLANRELDKYGVSDYYKNLINNAKTVEGVKALIDEILAALPYVPG
notes: domain: GA3
B18: Z17990-ABD (designed binder)
chain: AQHDEALEVDAKYAKERNEAAYEILYLPNLTNRQKWAFIWKLDDDPSQSSELLSEAKKLNDSQAPKVDYVLAEAKVLANRELDKYGVSDYYKNLINNAKTVEGVKALIDEILAALPYVPG
notes: domain: GA3
B19: Z18038-ABD (designed binder)
chain: AQHDEALEVDAKYAKERNTAAYEILYLPNLTNAQKWAFIWKLDDDPSQSSELLSEAKKLNDSQAPKVDYVLAEAKVLANRELDKYGVSDYYKNLINNAKTVEGVKALIDEILAALPYVPG
notes: domain: GA3
B20: Z17968-ABD (designed binder)
chain: AQHDEALEVDAKYAKERNQAAFEILYLPNLTQQQKWAFIWKLDDDPSQSSELLSEAKKLNDSQAPKVDYVLAEAKVLANRELDKYGVSDYYKNLINNAKTVEGVKALIDEILAALPYVPG
notes: domain: GA3
B21: Z17995-ABD (designed binder)
chain: AQHDEALEVDAKYAKERNTAAQEILYLPNLTNYQKWAFIWKLDDDPSQSSELLSEAKKLNDSQAPKVDYVLAEAKVLANRELDKYGVSDYYKNLINNAKTVEGVKALIDEILAALPYVPG
notes: domain: GA3
B22: Z17964-ABD (designed binder)
chain: AQHDEALEVDAKYAKERNAAAYEILYLPNLTNAQKWAFIWKLDDDPSQSSELLSEAKKLNDSQAPKVDYVLAEAKVLANRELDKYGVSDYYKNLINNAKTVEGVKALIDEILAALPYVPG
notes: domain: GA3
B23: Z17975-ABD (designed binder)
chain: AQHDEALEVDAKYAKERNHAAYEILYLPNLTNKQKWAFIWKLDDDPSQSSELLSEAKKLNDSQAPKVDYVLAEAKVLANRELDKYGVSDYYKNLINNAKTVEGVKALIDEILAALPYVPG
notes: domain: GA3
B24: Z17748-ABD (designed binder)
chain: AQHDEALEVDAKYAKERNAAAYEILYLPNLTQSQKWAFIWKLDDDPSQSSELLSEAKKLNDSQAPKVDYVLAEAKVLANRELDKYGVSDYYKNLINNAKTVEGVKALIDEILAALPYVPG
notes: domain: GA3
B25: Z18021-ABD (designed binder)
chain: AQHDEALEVDAKYAKERNFAAYEILYLPNLTSQQKWAFIWKLDDDPSQSSELLSEAKKLNDSQAPKVDYVLAEAKVLANRELDKYGVSDYYKNLINNAKTVEGVKALIDEILAALPYVPG
notes: domain: GA3
B26: Z18027-ABD (designed binder)
chain: AQHDEALEVDAKYAKERNNAAYEILYLPNLTSAQKWAFIWKLDDDPSQSSELLSEAKKLNDSQAPKVDYVLAEAKVLANRELDKYGVSDYYKNLINNAKTVEGVKALIDEILAALPYVPG
notes: domain: GA3
B27: Z17772-ABD (designed binder)
chain: AQHDEALEVDAKYAKERNKAAHEILYLPNLTNAQKWAFIWKLDDDPSQSSELLSEAKKLNDSQAPKVDYVLAEAKVLANRELDKYGVSDYYKNLINNAKTVEGVKALIDEILAALPYVPG
notes: domain: GA3
B28: Z17756-ABD (designed binder)
chain: AQHDEALEVDAKYAKERNAAAFEILYLPNLTNAQKWAFIWKLDDDPSQSSELLSEAKKLNDSQAPKVDYVLAEAKVLANRELDKYGVSDYYKNLINNAKTVEGVKALIDEILAALPYVPG
notes: domain: GA3
B29: Z17978-ABD (designed binder)
chain: AQHDEALEVDAKYAKERNEAAYEILYLPNLTQSQKWAFIWKLDDDPSQSSELLSEAKKLNDSQAPKVDYVLAEAKVLANRELDKYGVSDYYKNLINNAKTVEGVKALIDEILAALPYVPG
notes: domain: GA3
B30: Z17843-ABD (designed binder)
chain: AQHDEALEVDAKYAKERNAAAYEILYLPNLTNKQKWAFIWKLDDDPSQSSELLSEAKKLNDSQAPKVDYVLAEAKVLANRELDKYGVSDYYKNLINNAKTVEGVKALIDEILAALPYVPG
notes: domain: GA3
B31: Z18022-ABD (designed binder)
chain: AQHDEALEVDAKYAKERNSAAYEILYLPNLTNQQKWAFIWKLDDDPSQSSELLSEAKKLNDSQAPKVDYVLAEAKVLANRELDKYGVSDYYKNLINNAKTVEGVKALIDEILAALPYVPG
notes: domain: GA3
B32: Z17972-ABD (designed binder)
chain: AQHDEALEVDAKYAKERNIAAYEILYLPNLTNNQKWAFIWKLDDDPSQSSELLSEAKKLNDSQAPKVDYVLAEAKVLANRELDKYGVSDYYKNLINNAKTVEGVKALIDEILAALPYVPG
notes: domain: GA3

The target of this test is T1, human PD-L1 Fc Chimera (R&D Systems, cat. no. 156-B7-100) (human, UniProt Q9NZQ7 19-239, biotinylated with Sulfo-NHS-LC-Biotin in ELISA and AlphaLISA; not biotinylated in SPR).
T1 construct: bought; also called hPD-L1; biotinylated hPD-L1; not shown: Fc part of the bought Fc chimera, not described
T1 sequence (Q9NZQ7 19-239, change not shown): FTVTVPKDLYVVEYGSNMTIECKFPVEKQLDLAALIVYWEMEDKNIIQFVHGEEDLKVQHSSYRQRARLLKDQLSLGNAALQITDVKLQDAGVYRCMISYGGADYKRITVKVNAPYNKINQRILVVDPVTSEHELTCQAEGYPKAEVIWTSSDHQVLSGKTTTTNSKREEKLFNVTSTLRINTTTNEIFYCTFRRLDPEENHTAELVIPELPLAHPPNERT
Put plainly: ELISA titration, captured Z-ABD. In general terms: In an ELISA, binding on a coated surface is turned into a signal by an enzyme label.
Consider B1, for which the response was half-maximal at 0.067 nM (EC50). To B2 belongs 0.071 nM; to B3, 0.083 nM. To B4 belongs 0.077 nM; to B5, 0.078 nM. To B6 belongs 0.07 nM; to B7, 0.065 nM; to B8, 0.078 nM. With B9, the EC50 – broadly, the concentration that produces a half-maximal response – stood at 0.073 nM.

B10 displayed an EC50 of 0.075 nM.

Molecule B11 yielded an EC50 of 0.077 nM. In the case of B12 it was 0.062 nM; in that of B13, 0.076 nM; in that of B14, 0.067 nM. To B15 belongs 0.079 nM; to B16, 0.069 nM; to B17, 0.08 nM.

B18 returned an EC50 of 0.08 nM. In the case of B19 it was 0.069 nM; in that of B20, 0.082 nM; in that of B21, 0.084 nM. To B22 belongs 0.077 nM; to B23, 0.089 nM. In turn, B24 displayed an EC50 of 0.067 nM. To B25 belongs 0.088 nM; to B26, 0.08 nM. To B27 belongs 0.088 nM; to B28, 0.067 nM; to B29, 0.065 nM. To B30 belongs 0.086 nM. The molecule B31 came in with an EC50 of 0.074 nM. To B32 belongs 0.074 nM.
